Results on 115 sequences are retold here after the BET-seq Pho4 binding data (Le et al. 2018).

Some of the results follow. These are noisy estimates, calculated here from bound and input reads.

This test has as its target T1, Pho4 (S. cerevisiae) (UniProt P07270).
T1 sequence: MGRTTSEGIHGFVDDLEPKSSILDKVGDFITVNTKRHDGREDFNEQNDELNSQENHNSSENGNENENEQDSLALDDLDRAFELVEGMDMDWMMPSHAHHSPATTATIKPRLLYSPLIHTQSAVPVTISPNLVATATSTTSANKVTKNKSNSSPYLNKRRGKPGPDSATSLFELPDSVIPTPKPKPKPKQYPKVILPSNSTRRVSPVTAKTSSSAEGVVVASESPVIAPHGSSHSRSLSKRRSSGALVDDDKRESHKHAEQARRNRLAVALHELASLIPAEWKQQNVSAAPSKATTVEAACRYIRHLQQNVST
The test is described as follows: relative binding free energy (BET-seq); higher = weaker binding. To be noted: reference: library average.
Regarding TGTCGCACGTGGTTTT, the “relative binding free energy” value is -0.08 kcal/mol.
With ATTCTCACGTGACGGG, the “relative binding free energy” value was 0.25 kcal/mol.
On to AGGGCCACGTGAGTGG, for which the “relative binding free energy” value amounted to 0.1 kcal/mol.
With TTGAGCACGTGCGATG, the “relative binding free energy” value was -0.11 kcal/mol.
On to CGTTTCACGTGGTTCA, for which the “relative binding free energy” value was determined as 0.28 kcal/mol.
On to TATTGCACGTGTTAAC, for which the “relative binding free energy” value was 0.08 kcal/mol.
Turning to ATGTGCACGTGTTTTC, the “relative binding free energy” value was -0.04 kcal/mol.
For GTAAGCACGTGCAGTT, the “relative binding free energy” value was 0.11 kcal/mol.
With CAAGGCACGTGTTTAT, the “relative binding free energy” value is -0.09 kcal/mol.
As for TATTGCACGTGTGACG, the “relative binding free energy” value was found to be 0.02 kcal/mol.
In the case of TGGTTCACGTGGTCAG, the “relative binding free energy” value is 0.29 kcal/mol.
The same measure for TGAGCCACGTGTTAGT: 0.04 kcal/mol; for TATCTCACGTGATAGG: 0.29 kcal/mol; for TGGTTCACGTGCGTAT: 0.23 kcal/mol.
Regarding AATGACACGTGTGGGT, the “relative binding free energy” value amounted to 0.05 kcal/mol.
Turning to AGAGACACGTGGGGGA, the “relative binding free energy” value is -0.01 kcal/mol.
On to TGCTTCACGTGTGAGG, for which the “relative binding free energy” value is 0.26 kcal/mol.
Turning to CATGGCACGTGGTGGA, the “relative binding free energy” value was -0.16 kcal/mol.
Consider AATTACACGTGATGTT, for which the “relative binding free energy” value is 0.22 kcal/mol.
To GTAAACACGTGTAATG belongs 0.13 kcal/mol; to AGTTCCACGTGATTTG, 0.16 kcal/mol.
Turning to CGCGGCACGTGTTTGT, the “relative binding free energy” value is -0.09 kcal/mol.
For the sequence GGTTACACGTGATTCT, the “relative binding free energy” value was 0.37 kcal/mol.
To CAAGTCACGTGCGGGA belongs 0.15 kcal/mol.
In the case of CGGCTCACGTGGGCTG, the “relative binding free energy” value turned out to be 0.1 kcal/mol.
Take GTGGACACGTGGAGGG: the “relative binding free energy” value was 0.09 kcal/mol.
With AATGACACGTGCTTTG, the “relative binding free energy” value was determined as 0.04 kcal/mol.
For the sequence TATGTCACGTGCGTGA, the “relative binding free energy” value is -0.16 kcal/mol.
Turning to AAGCGCACGTGTGTAT, the “relative binding free energy” value was -0.04 kcal/mol.
On to GTGATCACGTGGGTCG, for which the “relative binding free energy” value amounted to 0.05 kcal/mol.
The same measure for TTTAACACGTGGTAGC: 0.08 kcal/mol; for TAAGGCACGTGTGCGA: -0.18 kcal/mol.
Regarding TTTAGCACGTGGGGGT, the “relative binding free energy” value was -0.17 kcal/mol.
With ATTCGCACGTGTAGGT, the “relative binding free energy” value is 0.02 kcal/mol.
With GGTAACACGTGTGCGG, the “relative binding free energy” value was 0.03 kcal/mol.
GCGATCACGTGATGTG: the “relative binding free energy” value amounted to 0.32 kcal/mol.
Consider TCTGTCACGTGTTCTT, for which the “relative binding free energy” value was 0.06 kcal/mol.
The same measure for TTGCTCACGTGCGATT: 0.33 kcal/mol; for GTTTGCACGTGTGCTC: 0.12 kcal/mol; for TACGGCACGTGTGCTG: -0.13 kcal/mol.
As for TTTGTCACGTGCTATG, the “relative binding free energy” value was determined as 0.11 kcal/mol.
For TAGCACACGTGTGTAT, the “relative binding free energy” value is 0.1 kcal/mol.
In the case of TGCATCACGTGGTGGG, the “relative binding free energy” value came to 0.08 kcal/mol.
As to TTGCGCACGTGGGTCA, the “relative binding free energy” value was -0.27 kcal/mol.
As for ATCAGCACGTGGTGAT, the “relative binding free energy” value was -0.06 kcal/mol.
For ACTTGCACGTGAAGTT, the “relative binding free energy” value worked out at 0.36 kcal/mol.
Take AGTGGCACGTGCTTTG: the “relative binding free energy” value was -0.22 kcal/mol.
With TGAGTCACGTGTCTTG, the “relative binding free energy” value is -0.12 kcal/mol.
With TATTGCACGTGGTCAT, the “relative binding free energy” value is -0.04 kcal/mol.
As to CGATGCACGTGGTCGT, the “relative binding free energy” value was -0.09 kcal/mol.
TTCAGCACGTGCTGGG: the “relative binding free energy” value was -0.05 kcal/mol.
Consider TTTTACACGTGTTTCG, for which the “relative binding free energy” value came to 0.04 kcal/mol.
Regarding TGGCGCACGTGTTGGC, the “relative binding free energy” value is 0 kcal/mol.
The same measure for TGAATCACGTGGGGGA: 0.12 kcal/mol.
As for GATAGCACGTGGTTCT, the “relative binding free energy” value is -0.06 kcal/mol.
As for TATTCCACGTGTGGTA, the “relative binding free energy” value stood at 0.13 kcal/mol.
For CGTTCCACGTGTGTGG, the “relative binding free energy” value stood at 0.15 kcal/mol.
With GTCTTCACGTGTGAGG, the “relative binding free energy” value stood at 0.3 kcal/mol.
The same measure for GTTTGCACGTGAAAGT: 0.27 kcal/mol; for GAGGTCACGTGGCTAT: 0.18 kcal/mol; for AGTTACACGTGTCGGT: 0.07 kcal/mol.
Consider CATGTCACGTGGTGGT, for which the “relative binding free energy” value came out at 0.03 kcal/mol.
In the case of TTTAGCACGTGGGTCT, the “relative binding free energy” value was -0.21 kcal/mol.
For AGCGGCACGTGTTGAT, the “relative binding free energy” value stood at 0.01 kcal/mol.
Take TGGTACACGTGACATG: the “relative binding free energy” value is 0.28 kcal/mol.
The same measure for TTAGACACGTGATATT: 0.13 kcal/mol; for GGGAGCACGTGAGGGA: 0.14 kcal/mol; for TTAGACACGTGCATTT: 0.08 kcal/mol.
Regarding TTTTTCACGTGTATAG, the “relative binding free energy” value amounted to 0.37 kcal/mol.
AACGGCACGTGGTATT: the “relative binding free energy” value is -0.06 kcal/mol.
To ATGTCCACGTGTTTAT belongs 0.07 kcal/mol.
As to TTGGACACGTGCTAAG, the “relative binding free energy” value is 0.04 kcal/mol.
With GTTTACACGTGGCTAT, the “relative binding free energy” value stood at 0.08 kcal/mol.
Regarding TGTTGCACGTGTGTTT, the “relative binding free energy” value was 0.17 kcal/mol.
As for TAGGGCACGTGTGCGG, the “relative binding free energy” value was -0.08 kcal/mol.
In the case of TGTCTCACGTGGTTTG, the “relative binding free energy” value worked out at 0.16 kcal/mol.
Take TTAGACACGTGTGTAT: the “relative binding free energy” value is -0.1 kcal/mol.
The same measure for GTGAGCACGTGTAGAT: 0.16 kcal/mol; for AGTGACACGTGTGGAA: 0.1 kcal/mol.
Consider TAGTTCACGTGTTAAT, for which the “relative binding free energy” value is 0.17 kcal/mol.
As for ACGTACACGTGTGTGT, the “relative binding free energy” value is -0.04 kcal/mol.
For the sequence TGATTCACGTGATTAG, the “relative binding free energy” value was 0.26 kcal/mol.
For TGGAGCACGTGAGAGG, the “relative binding free energy” value turned out to be 0.15 kcal/mol.
As to TTTCTCACGTGATTAG, the “relative binding free energy” value is 0.29 kcal/mol.
As for TTCTGCACGTGGGCGA, the “relative binding free energy” value was -0.12 kcal/mol.
The same measure for CATTTCACGTGTTTTA: 0.09 kcal/mol; for GAGTACACGTGTCGTT: 0.2 kcal/mol; for TTTCGCACGTGGTATA: -0.2 kcal/mol.
To TTAATCACGTGGATCT belongs 0.1 kcal/mol.
As for ATGTTCACGTGAGTGT, the “relative binding free energy” value was 0.33 kcal/mol.
GAGAACACGTGGTAGT: the “relative binding free energy” value worked out at 0.06 kcal/mol.
TCGTGCACGTGTCATG: the “relative binding free energy” value was found to be 0.06 kcal/mol.
To ATTGGCACGTGGATTA belongs -0.15 kcal/mol.
To TTATTCACGTGTGATG belongs 0.24 kcal/mol; to TTAGGCACGTGAGGCG, 0.09 kcal/mol; to CGGCGCACGTGGGTAT, -0.3 kcal/mol.
GATTGCACGTGCTGGC: the “relative binding free energy” value was 0.13 kcal/mol.
Take CGTGACACGTGATTTG: the “relative binding free energy” value is 0.22 kcal/mol.
In the case of AGCGGCACGTGTTCGG, the “relative binding free energy” value was -0.12 kcal/mol.
Take TCGGGCACGTGAAGCG: the “relative binding free energy” value amounted to 0.21 kcal/mol.
Take GTTGGCACGTGTTTCA: the “relative binding free energy” value is -0.04 kcal/mol.
CTTTTCACGTGTCGGG: the “relative binding free energy” value is 0.31 kcal/mol.
With AAATGCACGTGCATGT, the “relative binding free energy” value turned out to be 0.1 kcal/mol.
TTACTCACGTGAGTTG: the “relative binding free energy” value came to 0.39 kcal/mol.
In the case of GTAATCACGTGGCGGT, the “relative binding free energy” value stood at 0.19 kcal/mol.
Consider GCTGACACGTGGGGCG, for which the “relative binding free energy” value was -0.03 kcal/mol.
TAGGGCACGTGAGGCT: the “relative binding free energy” value came to 0.23 kcal/mol.
As to GCTGGCACGTGCAAGG, the “relative binding free energy” value was found to be 0 kcal/mol.
The same measure for GAGTGCACGTGTATCG: 0.08 kcal/mol; for ATAGACACGTGGTAGT: -0.25 kcal/mol.
Take TAGTCCACGTGGGGGA: the “relative binding free energy” value is -0.04 kcal/mol.
To GTATACACGTGTTGAT belongs 0.08 kcal/mol; to TAGAGCACGTGTATGA, 0.1 kcal/mol.
As to TACGTCACGTGGGAAG, the “relative binding free energy” value is 0.17 kcal/mol.
Turning to TAGGCCACGTGGGTCT, the “relative binding free energy” value was -0.24 kcal/mol.
